Among all 310,000 compounds or so, about 2,200 (0.71%) showed an effect of 50% or more. The effect is printed as a negative number. The list shows a part of the results.

human ether-à-go-go-related gene (hERG) potassium channel, sequence (Q12809 whole entry, looked up): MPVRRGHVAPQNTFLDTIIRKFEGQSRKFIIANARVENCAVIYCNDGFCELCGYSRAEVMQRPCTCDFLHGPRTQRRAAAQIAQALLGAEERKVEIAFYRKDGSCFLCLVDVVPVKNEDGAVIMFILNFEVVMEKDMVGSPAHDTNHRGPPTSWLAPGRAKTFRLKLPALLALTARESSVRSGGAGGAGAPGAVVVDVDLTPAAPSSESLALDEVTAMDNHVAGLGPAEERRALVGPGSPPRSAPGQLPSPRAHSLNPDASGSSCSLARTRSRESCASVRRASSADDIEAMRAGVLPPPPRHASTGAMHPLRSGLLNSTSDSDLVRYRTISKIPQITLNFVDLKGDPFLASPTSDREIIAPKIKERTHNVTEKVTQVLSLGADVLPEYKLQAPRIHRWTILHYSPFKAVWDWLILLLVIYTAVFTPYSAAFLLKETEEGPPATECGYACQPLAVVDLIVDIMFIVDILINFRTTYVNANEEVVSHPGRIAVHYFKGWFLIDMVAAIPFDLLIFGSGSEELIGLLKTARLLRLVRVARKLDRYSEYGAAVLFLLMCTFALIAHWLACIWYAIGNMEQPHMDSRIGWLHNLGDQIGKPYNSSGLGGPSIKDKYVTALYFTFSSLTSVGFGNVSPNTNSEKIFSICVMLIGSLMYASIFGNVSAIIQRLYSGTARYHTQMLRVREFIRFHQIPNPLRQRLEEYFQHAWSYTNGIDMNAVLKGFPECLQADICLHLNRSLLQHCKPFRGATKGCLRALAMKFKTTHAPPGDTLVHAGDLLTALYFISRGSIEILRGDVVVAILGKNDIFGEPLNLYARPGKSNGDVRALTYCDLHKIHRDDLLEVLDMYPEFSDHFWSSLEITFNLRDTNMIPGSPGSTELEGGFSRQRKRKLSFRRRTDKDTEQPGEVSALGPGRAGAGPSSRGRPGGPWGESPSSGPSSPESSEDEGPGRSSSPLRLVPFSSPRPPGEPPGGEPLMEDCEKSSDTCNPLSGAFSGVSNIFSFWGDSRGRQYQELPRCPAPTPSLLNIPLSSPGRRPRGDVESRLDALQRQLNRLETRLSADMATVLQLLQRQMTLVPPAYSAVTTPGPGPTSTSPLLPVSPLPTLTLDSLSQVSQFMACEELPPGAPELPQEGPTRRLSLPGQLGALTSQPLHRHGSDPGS

This experiment concerns the target human ether-à-go-go-related gene (hERG) potassium channel (human, UniProt Q12809). The experiment is described as follows: primary screen, population patch clamp on CHO cells stably expressing hERG.
For `O=C(NCC1CC1)c1cc([N+](=O)[O-])cc([N+](=O)[O-])c1`, the “hERG current change (%, negative = inhibition) at 1uM” value was determined as 12.6%.
On to `CCOc1ccc(S(=O)(=O)n2ccnc2)c2ccccc12`, for which the “hERG current change (%, negative = inhibition) at 1uM” value came to 15%.
As for `COc1ccccc1-c1cc2nc(C)cc(C)n2n1`, the “hERG current change (%, negative = inhibition) at 1uM” value stood at 12.1%.
Consider `O=c1c(-c2ccco2)[n+]([O-])c2ccccc2n1OCc1ccccc1`, for which the “hERG current change (%, negative = inhibition) at 1uM” value was 7.94%.
The same measure for `O=C(O)C(=O)O.OC(COC(c1ccc(F)cc1)c1ccc(F)cc1)CN1CCCC(C(F)(F)F)C1` (stereo not shown): 14%; for `CC(NC(=O)c1ccc(F)cc1)C(c1cccs1)N1CCN(C)CC1` (stereo not shown): 7.38%; for `O=c1cc(CSc2nc3ccccc3[nH]2)c2ccccc2[nH]1`: -5.37%.
Take `Cc1cc(C)n2nc(C(=O)OCCOc3ccc(Br)cc3)nc2n1`: the “hERG current change (%, negative = inhibition) at 1uM” value was -21.3%.
The same measure for `COc1cccc(NC(=O)C/C(C)=N/NC(=O)C2CCCCC2)c1`: 5.22%.
For `CC1CCc2sc(C(=O)N3CCN(c4ncccn4)CC3)cc2C1` (stereo not shown), the “hERG current change (%, negative = inhibition) at 1uM” value is 3.81%.
For the compound `CC(=O)O[C@H]1C[C@@]2(O)[C@@H](OC(=O)c3ccccc3)C3[C@@](C)([C@@H](O)C[C@H]4OC[C@@]34OC(C)=O)[C@@H](O)[C@H](OC(C)=O)C(=C1C)C2(C)C` (stereo partly shown), the “hERG current change (%, negative = inhibition) at 1uM” value came out at 6.25%.
As for `N/C(Cc1ccc([N+](=O)[O-])cc1)=N\OC(=O)CC1CCCCC1`, the figure is 3.58%; as for `CC(C)CC1NC(=O)c2ccccc2-n2c1nc1ccc(F)cc1c2=O` (stereo not shown), 14.1%; as for `CC(C)(C)N(Cc1ccccc1)C(=O)CN1C(=O)NC2(CCCCCC2)C1=O`, 9.29%.
The same measure for `COc1cccc2sc(NNC(=O)c3nc4ccccc4s3)nc12`: 11.2%.
The same measure for `COc1ccccc1NS(=O)(=O)c1cc(C(=O)NCC(c2ccco2)N(C)C)ccc1C` (stereo not shown): 18.1%; for `O=C(NC1CCCN(c2ccc(C(F)(F)F)cn2)C1)c1ccnc(Cl)c1` (stereo not shown): -9.21%.
For `O=C(NCc1cccnc1)c1sc2ccccc2c1Cl`, the “hERG current change (%, negative = inhibition) at 1uM” value is given as -5.89%.
With `O=C(O)c1ccc(C(=O)C(=O)c2ccccc2)cc1`, the “hERG current change (%, negative = inhibition) at 1uM” value is -1.04%.
As for `Cc1cccc(CC2S/C(=N/c3ccccn3)NC2=O)c1` (stereo not shown), the figure is 13.5%; as for `CC(=O)c1cc2c(cc1NC(=O)Cn1nc(-c3ccc(F)cc3)ccc1=O)OCO2`, -0.614%; as for `COCCCNC(=O)c1cc(Sc2ccc(F)cc2)nc2ccccc12`, 4.18%.
As to `Cc1ccccc1C(=O)N1CCN(c2ncnc3c2cnn3-c2ccccc2)CC1`, the “hERG current change (%, negative = inhibition) at 1uM” value is listed as 10.2%.
As for `Cc1ccc(S(=O)(=O)Nc2cnc3ccccc3c2)cc1`, the “hERG current change (%, negative = inhibition) at 1uM” value came out at 9.18%.
As for `CCOC(=O)C1=C(C)NC2=C(C(=O)CCC2)C1c1cccnc1` (stereo not shown), the figure is 6.56%; as for `COc1ccccc1C(=O)NNC(=O)Cc1ccccc1`, 11.7%.
As for `S=C1N(c2ccccc2)CN(C2CCCCC2)CN1c1ccccc1`, the figure is 8.09%; as for `COc1ccc(-c2ccc3nnc(SCC(=O)NCC4CCCO4)n3n2)cc1` (stereo not shown), 4.44%; as for `N#CC1(NC(=O)CN2c3cccc4cccc(c34)S2(=O)=O)CCCCC1`, 16.1%.
As for `COc1ccc2[nH]c(=O)c(CN(CCO)S(=O)(=O)c3ccc(C)cc3)cc2c1`, the figure is -1.16%.
For `CN1/C(=C\C(=O)c2cccc([N+](=O)[O-])c2)Sc2ccccc21`, the “hERG current change (%, negative = inhibition) at 1uM” value was 12.3%.
As for `O=C(Cc1ccc(F)cc1)NCCc1cnc[nH]1`, the “hERG current change (%, negative = inhibition) at 1uM” value was 16.9%.
Consider `COC(=O)CSc1nnnn1-c1cccc2ccccc12`, for which the “hERG current change (%, negative = inhibition) at 1uM” value was -2.31%.
With `COc1ccc(CN=C2NN=C(c3ccccc3)CS2)cc1`, the “hERG current change (%, negative = inhibition) at 1uM” value is 11.9%.
As for `O=C1C2C3C=CC(C3=C(c3ccccc3)c3ccccc3)C2C(=O)N1CCO` (stereo not shown), the “hERG current change (%, negative = inhibition) at 1uM” value is on record as -17.4%.
The same measure for `O=C(CN1CCN(c2ccccc2F)CC1)NC(=O)NCc1ccccc1`: 2.96%; for `CC(=O)C(C)Oc1ccc2c3c(c(=O)oc2c1)CCCC3` (stereo not shown): -0.665%; for `Cc1cccc(S(=O)(=O)c2c(N)n(Cc3ccco3)c3nc4ccccc4nc23)c1`: 11.8%.
The same measure for `c1nc2nc3c(c(N4CCNCC4)n2n1)CCCC3`: 8.16%.
With `CN1C(=O)/C(=C/c2ccccc2OCc2cccc(F)c2)NC1=S`, the “hERG current change (%, negative = inhibition) at 1uM” value turned out to be 7.4%.
The same measure for `CCn1cc(Cl)c(C(=O)Nc2nc3ccccc3n2CCN2CCCCC2)n1`: -51.8%.
The same measure for `C[C@@H]1[C@H]2[C@@H](O[C@@H]3O[C@H](CO)[C@@H](O)[C@H](O)[C@H]3O)OC=C(C(=O)O)[C@H]2C[C@@H]1O`: 15.4%.
Consider `Cc1nn(CCO)c2ncc(C(=O)c3cc(Cl)ccc3O)cc12`, for which the “hERG current change (%, negative = inhibition) at 1uM” value turned out to be 12.4%.
For `O=C1CC(C(=O)Nc2ccccc2)S/C(=N\NC(=O)c2ccccc2Cl)N1` (stereo not shown), the “hERG current change (%, negative = inhibition) at 1uM” value is 11.1%.
The same measure for `CC1CCCN(C(=O)CCCn2c(=S)[nH]c3ccccc3c2=O)C1` (stereo not shown): 7.88%; for `CCn1cc(C(=O)NC2CCCc3c2cnn3-c2cccc(C)c2C)cn1` (stereo not shown): 15.8%; for `COC(=O)c1ccc(N2CCN(C)CC2)c(NC(=O)c2cccnc2)c1`: -1.74%.
Consider `O=C(c1ccc(Cl)cc1)c1ccc(Oc2cc(NN3CCCCC3)c([N+](=O)[O-])cc2[N+](=O)[O-])cc1`, for which the “hERG current change (%, negative = inhibition) at 1uM” value is given as 4.18%.
As for `O=C(CCC(=O)Nc1nnc(C2CCCCC2)s1)Nc1ccccc1`, the “hERG current change (%, negative = inhibition) at 1uM” value was found to be 19.7%.
As for `O=C(Cc1cccs1)N1CCC(c2nc3c(nnn3Cc3ccccc3)c(=O)[nH]2)CC1`, the figure is 0.845%.
As for `O=C(Cc1cc(=O)[nH]c(=O)[nH]1)NCC1CCCO1` (stereo not shown), the “hERG current change (%, negative = inhibition) at 1uM” value is 6.43%.
As for `CCOc1cccc(C(=O)Nc2ccc(NC(=O)c3ccccc3)c(C)c2)c1`, the figure is 8.16%.
Consider `COc1ccc2cc3c(N)nn(C(=O)c4ccc(F)cc4)c3nc2c1`, for which the “hERG current change (%, negative = inhibition) at 1uM” value was 16%.
As for `Cc1cc(C)n2nc(SCCCC(=O)c3ccc(F)cc3)nc2n1`, the figure is -0.906%; as for `CCOc1ccc(C2NC(=O)c3sc(=S)n(-c4ccccc4)c3N2)cc1` (stereo not shown), -0.189%.
Take `C=CCn1c(O)c(/C=N/NC(=O)c2ccncc2)c(=O)[nH]c1=O`: the “hERG current change (%, negative = inhibition) at 1uM” value was found to be 17%.
As for `O=C(NC1CCC(O)CC1)c1cccc2cccnc12` (stereo not shown), the “hERG current change (%, negative = inhibition) at 1uM” value was determined as 11%.
As for `O=C(NCCCCCCNC(=O)OCCO)OCCO`, the figure is 17.6%.
With `CCN1CCN(Cc2ccc(NC(=O)c3ccc(C)c(NC(=O)C(=O)c4c[nH]c5ccccc45)c3)cc2C(F)(F)F)CC1`, the “hERG current change (%, negative = inhibition) at 1uM” value is listed as 9.58%.
As for `COc1ccc(NC(=O)COC(=O)CCCC2=NS(=O)(=O)c3ccccc3N2)cc1`, the figure is 19.9%.
Turning to `COc1c2ccoc2c(OC)c2oc(=O)ccc12`, the “hERG current change (%, negative = inhibition) at 1uM” value was -1.72%.
For the compound `CCN1C(=O)/C(=C/c2cccs2)S/C1=N\S(=O)(=O)c1ccc(C)cc1`, the “hERG current change (%, negative = inhibition) at 1uM” value came to 14.7%.
Take `CC(C)(C)[C@H]1C=C(C(=O)NCc2nc3ccccc3[nH]2)O[C@@H](OCCCCO)C1`: the “hERG current change (%, negative = inhibition) at 1uM” value turned out to be 12.3%.
As for `COc1ccc(OC)c(C(C(=O)NC2CCCCC2)N(C(=O)c2snc(C(N)=O)c2N)c2ccccc2OC)c1` (stereo not shown), the figure is 19.2%; as for `Fc1ccc(-c2noc(C3CCN(Cc4cccnc4)CC3)n2)cc1`, -9.35%.
As for `N#Cc1ccccc1COc1ccc(/C=C/C(=O)O)cc1`, the figure is 9.11%; as for `Cn1cccc1-c1nc2ccc(NC(=O)c3ccc([N+](=O)[O-])cc3)cc2[nH]1`, -2.9%.
The same measure for `O=c1ccc(OCCOc2ccccc2)nn1-c1ccccc1`: -3%; for `CCc1ccccc1Nc1nc(N)nc(COC(=O)c2c(C)noc2C)n1`: 4.89%; for `COC(=O)C1C(=O)C=C(Nc2ccc(F)cc2F)CC1c1ccccc1` (stereo not shown): 8.97%.
Regarding `CC(C)c1ccc(NC(=O)COC(=O)c2cc(=O)[nH]c3ccccc23)cc1`, the “hERG current change (%, negative = inhibition) at 1uM” value was 9.93%.
Take `CC1(OC(=O)C2CCCC2)C(=O)C=C2C=C(c3ccsc3)N(C3CC3)C=C2C1=O` (stereo not shown): the “hERG current change (%, negative = inhibition) at 1uM” value was found to be 16.1%.
For the compound `COc1ccccc1C(=O)Nc1ccc(S(=O)(=O)Nc2cnc3ccccc3n2)cc1`, the “hERG current change (%, negative = inhibition) at 1uM” value turned out to be 5.66%.
As for `COc1ccc2c(c1)[C@H]1[C@H](CO2)[C@H](c2ccccc2)[C@]2(C)C(=O)Nc3cc(F)c(F)cc3C(=O)N12`, the figure is 11.1%; as for `CSc1ccc(NC(=O)Nc2ccccc2C(N)=O)cc1`, 6.12%; as for `Cc1ccc(S(=O)(=O)Cc2ccc(C(=O)NCCCN3CCCC3=O)o2)cc1`, 12.8%.
Turning to `CCOC(=O)c1c(S(=O)(=O)NCC2CCN(Cc3cccc(F)c3)CC2)c(C)n(C)c1C`, the “hERG current change (%, negative = inhibition) at 1uM” value was -14.1%.
The same measure for `Cc1ccc(-c2c(C(=O)NNC(=S)NCC3CCCO3)csc2C)cc1` (stereo not shown): 24%; for `CC1Cc2ccccc2N1C(=O)c1nn(C)cc1Br` (stereo not shown): 20.9%.
The same measure for `O=C(CN1CCN(c2ccccc2O)CC1)NC(=O)NC1CCCC1`: 5.02%.
On to `Cc1ccc(N(CC(=O)NCc2ccc(F)cc2)S(=O)(=O)c2c(C)n[nH]c2C)cc1`, for which the “hERG current change (%, negative = inhibition) at 1uM” value is -4.25%.
Take `c1ccc2c(Nc3nnc(-c4ccncc4)s3)cccc2c1`: the “hERG current change (%, negative = inhibition) at 1uM” value was 4.88%.
As for `Cc1cccc(CNC(=O)C(C)n2nc(C)c3c(C)n(-c4ccccc4)nc3c2=O)c1` (stereo not shown), the figure is -2.53%; as for `O=C(CSc1nnc(C2CC2)n1C1CC1)c1ccc(F)c(F)c1`, -6.81%.
As for `CC(=O)N1CCOc2ccc(S(=O)(=O)N3CCCC(C)C3)cc21` (stereo not shown), the “hERG current change (%, negative = inhibition) at 1uM” value is listed as 13.9%.

Source of the values: PMC4336329 (PLoS ONE, 2015).
